We go through 54 sequences from paper PMC7819943, “Rice protein-binding microarrays: a tool to detect cis-acting elements near promoter regions in rice”.

This is one part of the list.

For this experiment, the target named is T1, OsWOX13 (Oryza sativa, UniProt Q5QMM3 1-267).
T1 sequence: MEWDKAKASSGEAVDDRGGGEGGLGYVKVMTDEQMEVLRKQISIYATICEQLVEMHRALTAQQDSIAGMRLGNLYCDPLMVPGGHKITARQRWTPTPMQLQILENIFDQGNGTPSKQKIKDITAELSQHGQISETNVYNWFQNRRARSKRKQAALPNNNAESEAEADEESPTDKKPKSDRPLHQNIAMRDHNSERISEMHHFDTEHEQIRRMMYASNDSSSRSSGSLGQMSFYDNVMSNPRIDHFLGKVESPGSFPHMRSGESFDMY
Description: protein-binding microarray (RPBM); PBS, 2% BSA, 51.3 ng/ul salmon testes DNA, 50 uM zinc acetate, 200 nM TF, 25 C, 1 h; high values mean tight binding. To be noted: protein: recombinant; tags: N-terminal polyhistidine and DsRed monomer fusion (pET32a); label: CyDye5-dUTP incorporated in the synthesized complementary strand; 3' TTTTT single-stranded linker to array surface; dsDNA, one strand shown. The method in brief:
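Transcription factors were made in E. coli BL21-CodonPlus as N-terminal fusions to a polyhistidine tag and DsRed, then purified on Ni–NTA. After primer extension with Cy5-dUTP and blocking with 2% BSA, a custom Agilent array was exposed for 1 h at 25 °C to 200 nM protein in PBS, 2% BSA, salmon testes DNA and 50 µM zinc acetate. Washed arrays were scanned on an Axon 4000B, and the binding signal is per-feature fluorescence intensity in arbitrary units.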
Regarding “CGAAGATTAATCTATCCTTCAGTATCTTTATATATACCGACGGAGTCACCTAGTGCAG”, the binding signal is 7170 fluorescence intensity (a.u.). Next, “GATAATAATGTATGCAAATTGGAAAATTATAGAGCTACAGCGGAGTCACCTAGTGCAG”: 12700 fluorescence intensity (a.u.); “ACGTGTGATTAATTGAGTTTTAATTATTATAAACTTAAAACGGAGTCACCTAGTGCAG”: 27900 fluorescence intensity (a.u.). Take “CTTGTCTGTCACCAGTTCATCACGCGATGTCGTCATAGCTCGGAGTCACCTAGTGCAG”: the binding signal was 6790 fluorescence intensity (a.u.).

In the case of “TGATTAGATTGGGTTTGGTTTAGTTTAGTTTAGCCTTTAACGGAGTCACCTAGTGCAG”, the binding signal is 5980 fluorescence intensity (a.u.). Turning to “AATTTTGATTAACATATCGCAGTTGGGGTGATCACGACTGCGGAGTCACCTAGTGCAG”, the binding signal is 29700 fluorescence intensity (a.u.). Next, “GTAGGAAAATTTTGATGTGATGGAAAAGTTGAAAGTTTGACGGAGTCACCTAGTGCAG”: 7280 fluorescence intensity (a.u.). With “ACCTAATGACGATGACTAATACGCAATCCTTTCAGAGATACGGAGTCACCTAGTGCAG”, the binding signal was 10400 fluorescence intensity (a.u.). Turning to “CTTTTGACATTATATTAGACAGATGGTAATCAAATTTAACCGGAGTCACCTAGTGCAG”, the binding signal was 10400 fluorescence intensity (a.u.). Next, “GAAAGATTATGTAACAAGATTGTACTGTCATGATGACATGCGGAGTCACCTAGTGCAG”: 10200 fluorescence intensity (a.u.). The same measure for “TGAAAACCATTTAAAATTTCAATCAAAATCTGTTTTCGCTCGGAGTCACCTAGTGCAG”: 11300 fluorescence intensity (a.u.). For the sequence “ATAGAGTAAATGACGGAATTAGATGATCACAACTTGCTGTCGGAGTCACCTAGTGCAG”, the binding signal was 11200 fluorescence intensity (a.u.).

Take “AATAAATCTGATTGATGTTTTCCAGAATGCATTTAGCAATCGGAGTCACCTAGTGCAG”: the binding signal is 25200 fluorescence intensity (a.u.). The same measure for “ATCTCCAAATACCAATCTAATTTGTTGTCCAGAATTTAATCGGAGTCACCTAGTGCAG”: 6980 fluorescence intensity (a.u.). The same measure for “AATAATAGACAGTGACTCTGTTTGGCGTACGCACAGACGACGGAGTCACCTAGTGCAG”: 25700 fluorescence intensity (a.u.); for “TAATAATTTAATGAAGAAGTGATCATAGTTAATGGCCTACCGGAGTCACCTAGTGCAG”: 16100 fluorescence intensity (a.u.). Next, “CCATCAATTGGGTCAATTTCTTGTTTATTCGTGCTAATAGCGGAGTCACCTAGTGCAG”: 5520 fluorescence intensity (a.u.); “GATAGATTAATATATGATATATCTTTTCACAAACATACAACGGAGTCACCTAGTGCAG”: 10500 fluorescence intensity (a.u.); “CTCTCCATCAGTGCCCTGCTTAATTGGTAGCTCAGGCAAACGGAGTCACCTAGTGCAG”: 18700 fluorescence intensity (a.u.). Consider “ATGATTAAATAGGAGTGTTAAATGTCAGAAATACTTGTCACGGAGTCACCTAGTGCAG”, for which the binding signal is 24400 fluorescence intensity (a.u.).

Turning to “CTACGTTTAATATTTATAATTAGTGTATAAATATTCGATGCGGAGTCACCTAGTGCAG”, the binding signal is 6900 fluorescence intensity (a.u.). The same measure for “CCCCTTTGTTGTGATTGAATCTGTGATGAATCGGTTGCCCCGGAGTCACCTAGTGCAG”: 30100 fluorescence intensity (a.u.).

With “TCTAATGATAAAATAAATTACAGATTCCGCCTGTAAACTGCGGAGTCACCTAGTGCAG”, the binding signal is 24400 fluorescence intensity (a.u.).

For the sequence “AACCCAACCCCAAGATTGATTGATCATCACTAGTAACCACCGGAGTCACCTAGTGCAG”, the binding signal is 37000 fluorescence intensity (a.u.). For the sequence “TCTTTGATTGGTGGCGGTGTTGAATTGAATTGAATTGATCCGGAGTCACCTAGTGCAG”, the binding signal is 46300 fluorescence intensity (a.u.). The same measure for “GAATTTTCCAATAGATTGAATCTCTTGCTAAATTTCCTTCCGGAGTCACCTAGTGCAG”: 9120 fluorescence intensity (a.u.). As for “AAATAATTTTACAGATAAGATATCCACATAATGATTATAGCGGAGTCACCTAGTGCAG”, the binding signal was 8230 fluorescence intensity (a.u.). Regarding “AAACGTAGATTACTGACAAAATTTATTCCATAATCCCTGGCGGAGTCACCTAGTGCAG”, the binding signal was 7270 fluorescence intensity (a.u.). As to “TTAATTGAGACCGATGAAGAGGCCATATGGACTGCGGGCCCGGAGTCACCTAGTGCAG”, the binding signal is 16600 fluorescence intensity (a.u.). Next, “GTTTTCCTAATTACGACCTCCCAGTGTTGTAATCTTATAACGGAGTCACCTAGTGCAG”: 4680 fluorescence intensity (a.u.); “TCTATTATTTCTTAATTGTATTTCTATATAAACTATATACCGGAGTCACCTAGTGCAG”: 3390 fluorescence intensity (a.u.); “TGGACTAATGACTGATATACAGTTCAGCTAATCTCCATTACGGAGTCACCTAGTGCAG”: 7970 fluorescence intensity (a.u.). Regarding “AACTTAATTAATGAGTAGCTTATAAAATCCTCAACTCGGCCGGAGTCACCTAGTGCAG”, the binding signal is 40400 fluorescence intensity (a.u.). As to “GTTAATGATGTTTTAGTTTACCTCCAAGGGAACTGTGGAACGGAGTCACCTAGTGCAG”, the binding signal was 5680 fluorescence intensity (a.u.). With “GCAATCAACAGCAGACTGACTGACTGCTCATTCTCACTCGCGGAGTCACCTAGTGCAG”, the binding signal was 18500 fluorescence intensity (a.u.). On to “AAGGAAATTAACAAGTTAGAAATCGATGAAAATTCTACAACGGAGTCACCTAGTGCAG”, for which the binding signal is 4390 fluorescence intensity (a.u.). As for “ATCTTGACAAATTTGCTTGTAGTTTGTAGAATTTGCTGTTCGGAGTCACCTAGTGCAG”, the binding signal was 22300 fluorescence intensity (a.u.). Take “CGTCCGCCACTGATTGACTATAAAGCGAACCAACCTGATTCGGAGTCACCTAGTGCAG”: the binding signal was 43200 fluorescence intensity (a.u.).

“GGTCCCTAAACTCGCAAATTGACCGTTCAGGTCCTCAAACCGGAGTCACCTAGTGCAG”: the binding signal was 3500 fluorescence intensity (a.u.). The same measure for “ATAATATAATTATGTAAGATCTTGTTTTGAATTGCAACGACGGAGTCACCTAGTGCAG”: 21100 fluorescence intensity (a.u.); for “ATGATAATGTCAAATTTACGATTTAATTTGGATCTGGATGCGGAGTCACCTAGTGCAG”: 23700 fluorescence intensity (a.u.); for “AGCCATAATTACAAACACCTGTGATATACTCTCTTATTTCCGGAGTCACCTAGTGCAG”: 8480 fluorescence intensity (a.u.).

For “TGTTTTAGTTAATTAATATAGTAGTCCATTGTAAATCACTCGGAGTCACCTAGTGCAG”, the binding signal was 7100 fluorescence intensity (a.u.). Consider “CCTCCATCCCCACAAATTACAATCAACAGGGAATATTCTGCGGAGTCACCTAGTGCAG”, for which the binding signal was 6720 fluorescence intensity (a.u.). Next, “TTCAATATTAATTTATGTTATTAATTTTAGAAATATATGTCGGAGTCACCTAGTGCAG”: 10800 fluorescence intensity (a.u.); “CCGTCAATCTCGCCGTCACCTGCTTCTTCTCCTCTATAAACGGAGTCACCTAGTGCAG”: 6840 fluorescence intensity (a.u.). As for “ATATATATATATATATATATATATAAAGCAGAAAGAAATACGGAGTCACCTAGTGCAG”, the binding signal was 22400 fluorescence intensity (a.u.). The same measure for “TCTGACTGCTTCGTCGCTTTTCTATCATTGCTATTTTGGTCGGAGTCACCTAGTGCAG”: 11300 fluorescence intensity (a.u.). Turning to “TAGGTTTGTAATTTTAGGATAATTTACTCTGAATGTGTTGCGGAGTCACCTAGTGCAG”, the binding signal is 8410 fluorescence intensity (a.u.). Regarding “GGGTTGATATATTGATGAATGCTCATATTCCCGATTGATACGGAGTCACCTAGTGCAG”, the binding signal was 9530 fluorescence intensity (a.u.). With “ATGTCAATCTAATGTCACTAACCCACCCGCCATTGATCTCCGGAGTCACCTAGTGCAG”, the binding signal was 12400 fluorescence intensity (a.u.).

In the case of “AATCACTATAATTTAACATAGGAATTTCAAATACAGTGTACGGAGTCACCTAGTGCAG”, the binding signal was 4520 fluorescence intensity (a.u.). “GAGTTATTTATAATTTATATTCTCAAGATTTGACTGAGTTCGGAGTCACCTAGTGCAG”: the binding signal was 5000 fluorescence intensity (a.u.). Regarding “GAACAAAACTGCCATTATCTCGTCAGTCATCGAGTCCACTCGGAGTCACCTAGTGCAG”, the binding signal is 6230 fluorescence intensity (a.u.).
